The source gives no read counts; variants with many changes may rest on few reads.
B1: CPEB3 Ribozyme (parent)
chain: UAACAGGGGGCCACAGCAGAAGCGUUCACGUCGCAGCCCCUGUCAGAUUCUGGUGAAUCUGCGAAUUCUGCUGUAUAUCUC

Variants of: B1
Experiment: self-cleavage, relative activity (ratio to wild type); higher = more cleavage; in vitro, sequencing
Outline: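 Barcoded CPEB3 ribozyme mutants, produced by rounds of error-prone PCR, self-cleaved while being transcribed with T7 RNA polymerase for 5 hours at 37°C and during a subsequent 15 min DNase I step before EDTA was added. Sequencing of template-switched cDNA on Illumina gave cleaved and total reads, and DNA sequencing assigned barcodes to variants. Each variant's relative activity is its cleaved/total read fraction divided by the unmutated ribozyme's fraction, averaged across three batches. A variant needed a minimum of 5 reads.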

| Variant | self-cleavage |
| --- | --- |
| A3U U51C A56G A64U | 0.18 |
| C4G A13U C17G U54C U72A | 0.11 |
| C4A A21G G22A G63A | 0.17 |
| A5C C12U U31C U41C U72C | 0.88 |
| C4A A13U A20U U67C U69C | 0.2 |
| C4U A56G A64U | 0.39 |
| A3U U49C G73A | 0.87 |
| C4U A13U G24A U41A U51C U54A U72A | 0.09 |
| C4U A15U C29U C40U U49C U60C C62A | 0.07 |
| C4U U58A C62U U80C | 0.14 |
| A5C A35C U69C | 0.34 |
| C4G A21G C29G U41C A57G | 0.08 |
| A3U U25C C38A | 0.39 |
| A3U U43C A57G U58C U66C U74A | 0.08 |
| C4U A15U C23A A45G A65G U78A | 0.06 |
| C4A U60A U72G | 0.89 |
| A5C A15G G24U U25C A57G | 0.11 |
| A5C A13G U67A U78C | 0.42 |
| C4U A18U U25C C39U A47U G70C | 0.15 |
| C4U G19U U58A | 0.13 |
| C4U A15G A35G | 1.07 |
| C4U A18G U25C C32U A64U U80A | 0.28 |
| A5C A21G U51A U60A | 0.19 |
| A5C A57G U78C | 0.72 |

| Variant | self-cleavage |
| --- | --- |
| A5C A64G U69G | 0.28 |
| C4A A5G A21G U78A | 0.62 |
| A5C A21G A57G C62U U72C U80A | 0.09 |
| A5C A20U U41A A47G U67C | 0.18 |
| C4G A18G U60C | 0.35 |
| C4U A18G U54C | 1.22 |
| C4U A5G A13G A21U U69A | 0.39 |
| C4U U51C U54A A56U A57U A77U | 0.85 |
| C4A A20G A56G | 0.55 |
| C4U U25C U26A A28G U48C | 0.35 |
| A3U U25C A35G A64G A77G | 0.4 |
| C4U U26A U58C U72A U76C | 0.42 |
| C4U A18G U76C | 1.1 |
| A5C U26A U60A U66A U74C U76C | 0.36 |
| A5C C38U U67C A75U C81U | 0.08 |
| A5C A15G A18G | 0.91 |
| C4U U31G A56G U58C U80C | 0.18 |
| A3U U48A A75G | 0.48 |
| A5C G16C G33U U41C | 0.07 |
| A5C A35U U58C | 0.17 |
| A3U U25C U31C | 0.2 |
| A3U U41C G42C U76C | 0.1 |
| C4G A18G A28G U43C | 0.29 |
| C4U U25C A45G U49C | 0.24 |

| Variant | self-cleavage |
| --- | --- |
| C4G A13G A45G U67A | 0.37 |
| C4G A21G A56U U66C U80A | 0.97 |
| C4U A28C G30C | 0.37 |
| C4U U25C A75G U78C | 0.08 |
| A3U U49C A56G U72C | 0.96 |
| C4G A5U C38U U49C | 0.32 |
| C4U C11U A21G U26A U43C | 0.25 |
| C4U C40U A57G U67C | 0.21 |
| C4U U41C A47U A57G | 0.19 |
| A3U U51G U60C | 0.78 |
| C4U G8U A20U U41C A57G | 0.05 |
| C4U A15G A56G A57G U80A | 0.45 |
| A3U U51A C59U | 0.97 |
| A5C A18G U49G | 0.64 |
| C4U A57G U69C A75G | 0.58 |
| C4G A13G G19A U60C C62G U67A U78C | 0.07 |
| C4U A35U U66C | 0.11 |
| C4A A35U U43A A57G | 0.51 |
| A3U U25C C29U U48C A56G C62A U80C | 0.14 |
| A5C C34U U48C U58C U66C | 0.18 |
| A5C G52U A65G U80G | 0.56 |
| A5C U26C G46A | 0.34 |
| A5C A20U A35G U49C | 0.14 |
| C4A A5G A15G A45U U49C U72C | 0.26 |

| Variant | self-cleavage |
| --- | --- |
| C4U U26A G33C U58A | 0.1 |
| C4G G8C A28U A35U U51C G52A | 0.06 |
| C4U A13G A28U A35C | 0.69 |
| C4U A20G G55U | 1.04 |
| C4A U41C U69A U78C U80A | 0.7 |
| C4U G33A A47U A65G U69A | 0.15 |
| A3U U69C U80C | 0.5 |
| A5C U25C A35G G73A | 0.25 |
| C4A C29G U72C | 0.39 |
| C4U A13G A45G | 1 |
| C4A A5G C14A U43C A47U U54C U66C | 0.06 |
| C4A C29U C40G U41C U72C | 0.39 |
| A5C A18G A75U | 0.35 |
| A5C A13G G24C U69A G73U | 0.38 |
| A5C A28G A64G | 0.52 |
| A5C C11U A28U U66C | 0.07 |
| C4U A20G A21G A64U | 0.25 |
| A5C A13G G19U | 0.1 |
| A5C U41C U49C | 0.54 |
| C4U U51C U76A U80C | 1.25 |
| A5C G24A U41A U80C | 0.31 |
| C4U G7C C23A U25C A35G U76C | 0.08 |
| A5C A13U U26C A28G C39A U69C | 0 |
| C4U A20G G22C A35G A56G U60A | 0.06 |

| Variant | self-cleavage |
| --- | --- |
| C4G A28G U51C A57G | 0.45 |
| A3U U25C U54A U60C U69C | 0.09 |
| C4A A15G U69C | 0.36 |
| A3U U48C G70A U78C | 0.47 |
| C4A A18G U60C U72C | 0.22 |
| C4U U54C U67G | 0.59 |
| C4U A57C U60G U78C | 0.57 |
| A5C U25G A35G | 0.11 |
| A3U U31C C40U U48C | 0.12 |
| A5C G30A C40A U43C | 0.34 |
| A5C C27U A56G A57G C62G U80C | 0.17 |
| C4U A21G U25C U43C | 0.3 |
| A3U U26C C59A U60C U80G | 0.33 |
| C4U A20U U25C U51A | 0.44 |
| A3U U51C U58A | 0.29 |
| C4U A35U A45U U72C | 0.52 |
| C4U A5G A13G A21U U58A U66C | 0.15 |
| C4U G53U U60C | 0.53 |
| A5C A35G A45G U48C U60G U67C | 0.5 |
| C4U C32A U43A U51A U67C G73A | 0.1 |
| A5C G6A A20G U67C | 0.09 |
| C4U U41A A45C | 0.17 |
| A3U U51A U74C | 1.23 |
| C4U G6A U67C U72C U76C A77U | 0.13 |

| Variant | self-cleavage |
| --- | --- |
| A5C U31A U72A | 0.13 |
| C4U U31A A65G | 0.62 |
| C4G A18G G30A U41A U78A | 0.26 |
| C4U U43G U58G | 0.32 |
| C4U U31A A35U U48C U80C | 0.18 |
| A5C C11G A20G A64U | 0.08 |
| C4U A20U U54C A56U U66C U69C | 0.17 |
| A3U U25C U41G A47U A56U A57U | 0.13 |
| C4G A13U A18G U49C U80C | 0.27 |
| A5C U43C U74C | 0.82 |
| A5C U25A G30A | 0.44 |
| C4U U48A G52U G53A U54C | 1.12 |
| C4U A18G A21G C29U C32A | 0.12 |
| C4U A13G G19A U41C | 0.13 |
| C4U A18U U26C A64G U78C | 0.13 |
| C4G U41A U51C A56U | 0.25 |
| A5C A21G G52C G63A | 0.42 |
| A5C A15G A56U A75U | 0.5 |
| C4U A35U U43A U58C C59U | 0.2 |
| C4U U41C A47U A65G U72C | 0.35 |
| C4U A20G A28G A35G U78C | 1.19 |
| A5C A18U A45U | 0.33 |
| C4G U48C U60C | 0.32 |
| C4G U54A A56G | 1.12 |

| Variant | self-cleavage |
| --- | --- |
| C4U A13G G52A U54C | 1.04 |
| A5C U25C A28G A65G A75U | 0.06 |
| C4U A35U U41A U60A A65G C71A | 0.11 |
| A5C A28G A65G A75U | 0.18 |
| A5C U41C A47G U49C C59U U72C | 0.35 |
| C4U A28U C32G | 0.29 |
| A3U U54C A65G C71A U76C | 0.31 |
| C4G U48C U54C | 0.63 |
| C4A C11U U69C U76A | 0.57 |
| A3U U26C G36U U78C | 0.47 |
| C4U U48C U54C | 0.3 |
| C4U G9U G52U A57G A75G | 0.09 |
| C4U G6C A15G U31C C50A | 0.11 |
| C4A U26C U43C G55A | 0.35 |
| C4A U25C A28G G36A A45C | 0.1 |
| C4U U26A U76C | 1.03 |
| A5C G16A A28G A56G U58C U60C | 0.22 |
| A5C G9U A15G A18U C38A U48C | 0.21 |
| A5C A13U U25C C40U A45U A56U U60C | 0.05 |
| A5C U41A A75U | 0.17 |
| A3U U31A U49C U80C | 0.55 |
| C4U U43C U54C | 0.39 |
| C4G A13G A45C U58C U80C | 0.06 |
